# From PubChem BioAssay AID2546 (National Center for Advancing Translational Sciences (NCATS), 2010)
# The whole screen tested about 310,000 compounds, of which about 11,000 (3.5%) were called active. Inconclusive means that the source gave no clear call. Such entries were picked first, then a sample of the others. Calls come from the whole dose curve; as a rule, active = well fitted inhibition curve with a large enough effect; inconclusive = small, poorly fitted or top-dose-only effect, or effect the other way; inactive = flat fitted curve, though single readings scatter. Potencies of inconclusive entries are left out as doubtful fits.
# Experiment: VP16 counterscreen qHTS for inhibitors of ROR gamma transcriptional activity;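 note: Gal4-VP16 expression switched on by copper sulfate through the metallothionein promoter; nearly all actives have a fitted effect of over 50% in size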
# Settings: Drosophila S2 Gal4-VP16 UAS-luciferase, luminescence, 20 h; activity, negative = inhibition: at 53.6 µM (top of the series)
# % is set by controls: 0 for no effect and ±100 for the full control effect; potency is the fitted concentration of half-maximal effect; tags give direction and shape of the fitted curve.
Structure (SMILES),Potency,"activity, negative = inhibition"
COCc1nnc(NC(=O)CCCOc2ccccc2)s1,inactive,
Nc1ccccc1NC1=CC(=O)CC(c2ccco2)C1 (stereo unspecified),"inconclusive [activator, single point]",
COCCCNCCOCCOc1ccc(Cl)cc1C(C)(C)C,inactive,
O=[N+]([O-])c1ccc(/C=N/NC(=S)Nc2ccc(Cl)cc2Cl)s1,"inconclusive [inhibitor, single point]",
O=C(COC(=O)c1ccc([N+](=O)[O-])o1)Nc1cccc(S(=O)(=O)N2CCOCC2)c1,active: 7.08 µM,
Cn1c(=O)c2c(nc(CN3CCN(Cc4ccccc4)CC3)n2Cc2ccc(Cl)cc2)n(C)c1=O,inactive,
CN(C)C(=O)CN1C(=O)C2CCCCN2C(=O)c2ccccc21 (stereo unspecified),inactive,
COc1ccc(/C=N/NC(=O)c2cccc([N+](=O)[O-])c2)cc1OC(=O)c1ccc(C)cc1,"inconclusive [inhibitor, single point]",
N#CCCn1c(=O)c(-c2ccc(F)cc2)nc2cnc(OCc3ccccc3)nc21,inactive,
CC(C)NS(=O)(=O)c1ccc(CCC(=O)NCc2cccnc2)cc1,inactive,
Cn1cc(CC(=O)NCCN2CCOCC2)c2ccccc21,,inactive: -5.05% [at 10 µM]
CC1Cc2ccccc2N1C(=O)COc1cccc(-n2cnnn2)c1 (stereo unspecified),inactive,
CCCCCCCCCCCCCCOc1ccc(C(=O)O)o1,inactive,
CN(C)C(=O)Nc1ccc(Oc2ccc(Cl)cc2)cc1,"inconclusive [inhibitor, single point]",
Clc1ccc(-c2nnc(C34CC5CC(CC(C5)C3)C4)o2)cn1,inactive,
Cc1ccc2cc(C3CC(c4ccco4)=NN3C(=O)CCC(=O)O)c(Cl)nc2c1 (stereo unspecified),"inconclusive [activator, single point]",
COc1ccc(/C=C/C(=O)NC(=S)N2CCCCC2)cc1OC,"inconclusive [inhibitor, single point]",
COC(=O)c1ccc(NC(=O)c2ccc3c(c2)C(=O)N(Cc2cccnc2)C3=O)cc1,"inconclusive [inhibitor, single point]",
CCC(=O)NCCc1nc2ccccc2n1Cc1ccc(C)cc1,inactive,
CC[C@@H](C)[C@H](NC(=O)OC(C)(C)C)c1nnc(S(=O)(=O)Cc2cc(C)ccc2C)o1,"inconclusive [inhibitor, single point]",
CN(C)C(=O)CNC(=O)C1CCCCC1,inactive,
COc1cc(C2C=C(c3cccs3)Nc3ncnn32)cc(OC)c1OC (stereo unspecified),"inconclusive [inhibitor, partial curve]",
COc1ccc(-n2c(N)c(-c3nc4ccccc4n3C)sc2=S)cc1,inactive,
Cc1ccc(Cn2c(N3CCN(CCO)CC3)nc3c2c(=O)n(C)c(=O)n3C)cc1,inactive,
CCOc1ccccc1NC(=O)Cn1c(=O)n(-c2ccccc2)c(=O)c2oc3ccccc3c21,"inconclusive [inhibitor, single point]",
CCn1c2ccccc2c2cc(/C=N/n3cnnc3)ccc21,"inconclusive [inhibitor, single point]",

Structure (SMILES),Potency,"activity, negative = inhibition"
Fc1cccc(C2NN=C(c3ccccc3)S2)c1 (stereo unspecified),"inconclusive [inhibitor, single point]",
C=CC[n+]1c(-c2ccccc2)csc1NC(C)(C)C,inactive,
CC(C)(C)n1nc2c(c1NC(=O)c1cc3ccccc3o1)CS(=O)(=O)C2,inactive,
COCc1cc(C)n(CC(=O)N/N=C/c2ccc(-c3ccc(Cl)c(C(=O)O)c3)o2)c(=O)c1C#N,inactive,
O=C(COC(=O)CNC(=O)c1ccc(Cl)cc1)Nc1ncc(C(F)(F)F)cc1Cl,"inconclusive [activator, single point]",
C=CCn1nc([N+](=O)[O-])nc1Sc1cccc2cccnc12,"inconclusive [inhibitor, single point]",
CCn1cnc2cc(NCc3nc4ccccc4n3C)ccc21,"inconclusive [inhibitor, single point]",
CCCCCCCCCCCCCCCCOCC(CO)OC(C)=O (stereo unspecified),inactive,
O=C(NCc1ccccn1)c1ccc(NS(=O)(=O)c2cccc(Cl)c2)cc1,inactive,
COc1ccc(-c2oc3cccnc3c2C#CC2(O)CCCCC2)cc1,"inconclusive [inhibitor, single point]",
Cc1nc2ccc(NC(=O)c3ccco3)cc2nc1C,"inconclusive [activator, full curve, poor fit]",
c1nc(NC2CCCCC2)c2[nH]cnc2n1,inactive,
COc1ccc(-c2c[n+]3c(n2-c2ccc(C)cc2)CCCCC3)cc1,active: 11.2 µM,
O=C(O)COc1ccc2occ(C(=O)c3ccccc3)c2c1,inactive,
COC(=O)c1cc(O)cc(OC)c1C(=O)c1c(O)cc(C)cc1O,"inconclusive [inhibitor, single point]",
Cc1ccc(N(C)S(=O)(=O)c2cccc(C(=O)Nc3nc4ccccc4[nH]3)c2)cc1,active: 1.12 µM,
O=[N+]([O-])c1ccc(-c2ccc(/C=N/c3c(-c4ccco4)nc4ccccn34)o2)cc1,inactive,
O=C(C1CCC1)N1CCc2cc(S(=O)(=O)Nc3ccc4c(c3)OCCO4)ccc21,active: 20 µM,
CCOC(=O)C(C)(C)N(Cc1ccc(C)cc1)S(=O)(=O)c1ccc(Cl)c([N+](=O)[O-])c1,"inconclusive [inhibitor, single point]",
Oc1ccc(N=Nc2c(O)ccc3ccccc23)cc1,active: 12.6 µM,
O=C(N/N=C\c1ccc[nH]1)c1cncc(Br)c1,active: 5.62 µM,
CN(C1CCCCC1)S(=O)(=O)c1ccc(Cl)c(C(=O)O)c1,inactive,
Cc1c(NC(=S)/C=C2\N(C)c3ccccc3C2(C)C)c(=O)n(-c2ccccc2)n1C,"inconclusive [inhibitor, single point]",
O=C(NCc1ccco1)c1nc2c(nnn2Cc2ccccc2Cl)c(=O)[nH]1,active: 7.94 µM,
CC(=O)c1ccc(N2CCN(S(=O)(=O)c3ccc4c(c3)CC(C)N4C(=O)C3CC3)CC2)cc1 (stereo unspecified),active: 11.2 µM,
CN1C(=O)C(Cl)(Cl)C(=O)c2ccccc21,"inconclusive [inhibitor, single point]",

Structure (SMILES),Potency,"activity, negative = inhibition"
CCCCC(=O)Nc1ccc(C(=O)Nc2ccc(S(=O)(=O)Nc3ccc(C)cc3)cc2)cc1,active: 11.2 µM,
CCc1ccc(O)c(-c2cc(C(=O)Nc3cccnc3)[nH]n2)c1,"inconclusive [activator, single point]",
O=C(/C=C/c1ccccc1F)c1cccc([N+](=O)[O-])c1,"inconclusive [inhibitor, single point]",
CCCc1cc(C(=O)NNC(=S)NCc2ccccc2)cs1,"inconclusive [inhibitor, single point]",
CCOC(=O)c1c(C)[nH]c(C)c1C(=O)CSc1nnc(-c2ccc(OC(F)F)cc2)o1,"inconclusive [inhibitor, single point]",
CCC(=O)Nc1ccc2c(c1)nc1n2CCN(C2CCCCC2)C1,inactive,
O=C(COc1cc(Cl)c(Cl)cc1Cl)N1CCN(c2ccccn2)CC1,inactive,
CCOC(=O)c1c(NC(=O)CSc2ncccn2)sc2c1CCN(Cc1ccccc1)C2,"inconclusive [inhibitor, partial curve]",
CCOc1ccc(-c2cc(C(=O)NN=C3CCN(C)CC3)[nH]n2)cc1,"inconclusive [inhibitor, single point]",
CN1CCN(c2ccc(NC(=O)c3cccs3)cc2)CC1,"inconclusive [inhibitor, single point]",
O=C(NNC1=NS(=O)(=O)c2ccccc21)c1ccc(Cl)cc1,"inconclusive [inhibitor, single point]",
Cc1cc(C)cc(NC(=S)NCc2cccs2)c1,active: 11.2 µM,
CCN(CC(=O)Nc1ccccc1-c1ccccc1)Cc1nc2ccccc2c(=O)[nH]1,"inconclusive [inhibitor, single point]",
O=S(=O)(NC1CC1)c1ccc(S(=O)(=O)N2CCCc3ccccc32)cc1,"inconclusive [inhibitor, single point]",
C=Cn1ccnc1P(=S)(c1ccc2c(c1)c1ccccc1n2CC)c1nccn1C=C,"inconclusive [inhibitor, single point]",
COc1cccc(NC(=O)C(C)OC(=O)CCCNC(=O)c2ccc(Cl)cc2)c1 (stereo unspecified),"inconclusive [inhibitor, single point]",
COc1cc(/C=C/C(=O)c2ccccc2O)cc(OC)c1OC,"inconclusive [inhibitor, single point]",
Oc1c(/C=N/c2ccccn2)sc2ccccc12,"inconclusive [inhibitor, single point]",
CC(=O)c1cnc2cc(-c3ccc(Cl)cc3)nn2c1C,"inconclusive [inhibitor, full curve]",
O=C(CC1C(=O)NCCN1C1CCCC1)NCc1cccc(OC(F)(F)F)c1 (stereo unspecified),inactive,
O=c1c2ccc([N+](=O)[O-])cc2ncn1Cc1ccccc1C(F)(F)F,inactive,
Cc1cc(NC(=O)COc2cccc(C)c2C)no1,"inconclusive [activator, partial curve]",
C/C(=N\NC(=O)c1nnn(-c2nonc2N)c1CN(C)c1ccccc1)c1ccccn1,"inconclusive [inhibitor, partial curve, poor fit]",
S=C(NCCc1ccccn1)Nc1ccc(Cl)cc1,"inconclusive [inhibitor, single point]",
